Laboratory results from the RNAGym collection of RNA variant scans (doi:10.1093/nar/gkz1192).
Read counts are not given, so values of variants with three or more changes are uncertain.

B1: CPEB3 Ribozyme (parent)
chain: UAACAGGGGGCCACAGCAGAAGCGUUCACGUCGCAGCCCCUGUCAGAUUCUGGUGAAUCUGCGAAUUCUGCUGUAUAUCUC

Variants of: B1
Assay: self-cleavage, relative activity (ratio to wild type); higher = more cleavage; in vitro, sequencing
Method in brief: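 For each CPEB3 ribozyme variant, relative activity is its cleaved/total read fraction divided by the unmutated ribozyme's. Barcoded error-prone PCR libraries were transcribed by T7 RNA polymerase (5 hours, 37°C) and held in DNase I for 15 min before an EDTA stop, with cleavage occurring throughout. Template-switching reverse transcription and Illumina sequencing were used to read the RNAs. A 5-read minimum applied, and results are the mean of three batches.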

Variant | self-cleavage
UAGCAGGGGGCCACAGCAGAAGCGUUCAAGUCGCAGCCCCUGUCAGAUUCUGGUGAAUCUGCGAACUCUGCUGUAUAUCUC [A3G C29A U66C] | 0.24
UAGCAGGGAGCCACAGCAGAAGCGUUCACGUCGCAGCCCCUGUCAGAUUCUGGUGAAUCUGCGAGUUCUGCUGUAAAUCUC [A3G G9A A65G U76A] | 0.17
UAGCAGCGGGCCACGGCAGGAGCGUUCACGUCGCAGCCCCUGUCAGAUUCUGGUGAAUCUGCGAAUUCUGCUGUAUAUCUC [A3G G7C A15G A20G] | 0.16
UAGCAGGGGGCCACAGCAGAAGCGUUCACGUUGCAGCACCUGUCAGAUUCUGGUGAAUCUGCGGAUUCUGCUGUAUUUCUC [A3G C32U C38A A64G A77U] | 0.06
UAGCAGGGGGCCACAGCAGAAGCGUUCACGUCGCAGCACCUGUCAGAUUCUGGUGAAUCCGGGAACUCUGCUGUAUGUCUC [A3G C38A U60C C62G U66C A77G] | 0.09
UAGCAGGGGGCCACAGCAGAAGCGUUCAUGUCGCAGCCCCUGUCUGAUUCUGGUGAAUCAGCGAAUUCUGCUGUAUAUCUC [A3G C29U A45U U60A] | 0.72
UAGCACGGGGCCACACCAGAAGCGUUCACGUCGCAGCCCCUGUCAGAUUCUGGUGAAUCUGCGAAUUCAGCUGUAUAUCUC [A3G G6C G16C U69A] | 0.32
UAGCAAGGGGCCACAGCAGAAGCGUUCACGUCGCAGCCCCAGUCAGAUUCUGGUGAAUCUGUGAAUUCUGCUGUAUAUCUC [A3G G6A U41A C62U] | 0.06
UAGCAGUGGGCCGCAGCAGAAGCGUUCACGCCGCAGCCCCUGUCCGAUUCUGGUGAGUCUGCGAAUUCUGCUGUAUGUCUC [A3G G7U A13G U31C A45C A57G A77G] | 0.09
UAGCAGGGGGCCACAGCAGAAGCGUUCACGUCGCAGACCCAGUCGGAUUCUGGUGAAUCUGCGAUUUCUGCUGUUUAUCUC [A3G C37A U41A A45G A65U A75U] | 0.23
UAGCAGGGGGCCACAGCAGAAGCGUUCACGUCGCAGCCCCUGUCAGAUUCUGGUGAAUCUGAUAAUUCUGCAGUAUAUCUC [A3G C62A G63U U72A] | 0.24
UAGCAGUGGGCCACAGCAGAUGCGUUCACGUCGCAGCCCCUGACAGAUUCUCGUGAAUCAGCGAAUUCUGCUGUAUAUCCC [A3G G7U A21U U43A G52C U60A U80C] | 0.06
UAGCAGGGGCCCACCGCAGAAGCGUUCACGUCGCAGCCCCAGUCAGACUCUGGUGAAUCUGCGAAUUCUGCUGUAUAUCUC [A3G G10C A15C U41A U48C] | 0.49
UAGCAAGGGGCCACAGCAGAAGCGCUCACGUCGCAGCCCCUGUCAGAUUCUGGUGGAUCAGCGAAUUCAGCUGUAUAUCUC [A3G G6A U25C A56G U60A U69A] | 0.04
UAGCAGAGGGCCACAGCAGAAGCGCUCACGUCGCAGCCCCUGUCAGAUUCUGGUGAAUCUGCGGAUUCUGCUGUAUAUCUC [A3G G7A U25C A64G] | 0.23
UAGCAGGAGGCCACAGCAGAAGCGUUCACGUCGCAGCCCCUGUCAGAUUCUGGUGAAUCUGCGAAUUCUGCUGUGCAUCUC [A3G G8A A75G U76C] | 0.09
UAGCAGGGCGCCACAGCAGAAGCGUUCACGUCCCAGCCCCUGUCAGAUUCAGGUGAAUCUGCGAAUUUAGCUGUGUAUCUC [A3G G9C G33C U51A C68U U69A A75G] | 0.06

Variant | self-cleavage
UAGCAGGGGACCACAGCAGAAGCGUUCGCGUCGCAGCCCCAGUCAGAUUCUGGUGCACCAGCGAAUUCUGCUGUAUAUCUC [A3G G10A A28G U41A A56C U58C U60A] | 0.22
UAGCAGCGGGCCACAGCAGAAGCGUGCACGUCGCAGCCCCUGUCAGAUUCUGGCGAAUCUGCGAAUUCUGCUGUAUAUCUC [A3G G7C U26G U54C] | 0.08
UAGCAGGUGGCCACAGCAGAAGCGUUCACGUCGCAGCCCCUGUCAGAUUCUGGUGUAUCUGCGAAUUCUGCUGUAUAUCUC [A3G G8U A56U] | 0.18
UAGCAGCGGGCCACAGCAGAAGCGCUCACGUCGCAGCCCCUGUCCGAUUCUGGUGAAUCUGCGAAUUCUGCUGUAUAUCUC [A3G G7C U25C A45C] | 0.1
UAGCAAGGGGCCACAGCAGAAGCGUUCACGUCGCUGCCCCUGUCAGAUUCAGGUGAAUCUGCGAAUACAGCUGUAUAUCUC [A3G G6A A35U U51A U67A U69A] | 0.07
UAGCAGGGAGCCACAGCAGAAGUGUUCACGUCGCAGCCCCUGUCAGAUUCCGGUGAAUCUGCGAAUUCUGCUGUAUAUCUC [A3G G9A C23U U51C] | 0.07
UAGCAGUGGGCCACUGCAGAAGUGUUCACGUCGCAGCUCCUGUCAGAUCCUGGUGAAUCUGCGAAUUCUGCUGUAUAUCAC [A3G G7U A15U C23U C38U U49C U80A] | 0.04
UAGCAGGGCGCCACAGCAGAAGCGUUCACAUCGCAGCCCCUGUCAGAUUCUGGUGAAUCUGCGAAUACCGCUGUAUAUCCC [A3G G9C G30A U67A U69C U80C] | 0.06
UAGCAGGGGGCCACAGCAGAAGCGUUCACGUCGAAGCCCCAGUCAGAUUCUGGUGAAUCUGCGAAUUCUGCUGUAAAUCUC [A3G C34A U41A U76A] | 0.27
UAGCAGGGGACCACAGCAGAAGCGUUCACGUCGCAGCCCCUGUCAGAUUCUGGUGAAUGUGCGAAUUCUGCUGUAUAUCUC [A3G G10A C59G] | 0.08
UAGCAGGUGGCCACAGCAGAAGCGUUCACGUCGCAGCCCCUGCCAGAUUCUGGUGAAUCUGCGAAUUCUGCUGUAUAUCUC [A3G G8U U43C] | 0.52
UAGCAGGGCGCCACAGCAGAAGCGUUCGCGUCGCAGCCCCUGUCAGAUUCUGGUGAAUCUGGGAAUUCUGCUGUAUAUCUC [A3G G9C A28G C62G] | 0.31
UAGCAAGGGGCCACAGCAGAAGCGUCCACGUCACAGCCCCUGUCAGAUUCUGGAGGAUCUGCGAAUUCUGCUGUAUAUCUC [A3G G6A U26C G33A U54A A56G] | 0.04
UAGCAGGAGGCCACAGCAGAAGCGUUCACGUCGCAGCCCCUGUCAGAUUCUGGUGAAUCUGCGAGUUCUGCUGUAUAUCUC [A3G G8A A65G] | 0.09
UAGCAGAGGGCCACAGCAGAAGCGUUCACGUCGCAGCCCCUGUCAGAUUCUGGUGAAUCUGCGAAUGCUGCUGUAUAUCUC [A3G G7A U67G] | 0.06
UAGCAGGAGGCCACAGCAGAAGCGUUCACGUCGCAGCCCCUGUCAAAUUCUGGUGAAUCUGCGAGUUCUGCAGUAUAUCUC [A3G G8A G46A A65G U72A] | 0.07
UAGCAGGGGGCCACAGCAGAAGCGUUCAGGUCGCAGCCCCUGUCAGAUUCCGGUGAGUCUGCGAAUUCAUCUGUAUAUCUC [A3G C29G U51C A57G U69A G70U] | 0.09
